The list shows a part of the results.
System: PfHDP1 homeodomain (GST-tagged)
Experiment: gcPBM binding intensity (ln(normalized median fluorescence intensity)); higher = stronger DNA binding
How it was run: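 GST-fused DNA-binding domains of P. falciparum, expressed in E. coli, were applied at about 25 μg on average for 1 h to an Agilent 4 × 180k array of primer-extended double-stranded 36-bp intergenic genomic probes and negative controls. Binding intensity is the highest Masliner-normalised natural-log median intensity across replicate spots of either probe orientation, measured with Alexa488 anti-GST antibody and a 488 nm scan.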

Sequence | gcPBM binding intensity (ln)
TTCTTTTAAAGGTATACATGCGCATGGATTTTTCAT [TGCATGCA_site223] | 7.51
ATGTCTTTGAAAAAAAGTACTTAAAATTATAAAAAT [XGTACX_site147] | 6.52
ACTGTCGTTTTAAAGAGTACATAAAATATTAAATTA [XGTACX_site3589] | 6.06
AAAACTATTAATGCAAAAAATAAAATATAATAATAA [XGTACX_negctrl_site524] | 6.99
TCAAAGCACAGATACACACACATATATATATATATA [CACACA_site287] | 9.31
AATTAAAAAATTATCACACATATATATATATATATA [CACACA_site5789] | 9.53
TATATACCACATTGTTGTACGACACATTTACATTTT [XGTACX_site8370] | 7.13
TACAAATATAGACACACACACATATATATATATATA [CACACA_site585] | 9.43
ATAAAAAAATAAAACACACACATATAGATTATAGAT [CACACA_site7343] | 7
TAATTTGAAAAATTGTGTACTCATAAAATAAATAAA [XGTACX_site2138] | 6.55
GATTTATATATATAAAATAATTGAATATTTTCTTTT [CACACA_negctrl_site801] | 6.05
TTTATTTTTCATAATTGTACAAAAATAAATGGAAAC [XGTACX_site5144] | 6.9
ATAGATGATATACGTAAACACACAAATAAAAAAAAT [CACACA_site9095] | 6.97
TTTTCTTACTATTGTAGTACAATATTATATTCTTTT [XGTACX_site1925] | 7.09
TATAAATATGTATATACACACTTTTAATATTCATAA [CACACA_site7856] | 6.57
TGCGTATTCTTATTAGGTACACATATTCGTGATAAT [XGTACX_site5681] | 6.13
CATATATCATAAATATGTACGAAATAAAAGAATCAT [XGTACX_site942] | 6.85
TTTTCTAAAATATTCATAATAAATCAAAAAAAAAAA [GTGCAC_negctrl_site320] | 6.36
ATAAAAGGAATATTTGCATGTGGTAGTACATAACAT [TGCATGCA_site978] | 7.02
TAATATTTTTATTATTAGAATTGTATATGTTTAATA [CACACA_negctrl_site1833] | 5.88
TACATATATATATGTATATATATATATATATAAATA [XGTACX_negctrl_site351] | 6.85
ACATAACTGATATATACACACAATACAAATATAGAT [CACACA_site7328] | 6.85
AAATGTGCATTATGTTGTACAGTCGAAATTTTTTTT [XGTACX_site3812] | 10.4

Sequence | gcPBM binding intensity (ln)
ATGAATAAATGAACATGTACATATATATATATATTA [XGTACX_site5005] | 6.64
TTAACAAAATATAGCACACATAAATATATATTTATG [CACACA_site351] | 6.83
TAAAAAATTAATAAAGTGCATAAATATTACAATATT | 7.68
TTTTCTAAATATTATAGTACTCTTAATAATATTAAC [XGTACX_site4222] | 6.4
GACATATTAGAAGGGTGTACATACTTTTAATCATTT [XGTACX_site1698] | 6.45
AATATTAAAATATAAACACACAAAATTCAATTATAT [CACACA_site5971] | 6.43
ATTCATATATTTATTGCATGCAAAGTAAAATAAATA [TGCATGCA_site307] | 7.16
ATTATATATAAATATACACACATATATAAAATACAT [CACACA_site5298] | 6.57
TACATACAGATATATACACACATATAAAATATAGAT [CACACA_site6319] | 6.64
AAGAGAAAAATATGGTTGCACTAAAAATATATATTT | 8.26
AAATTAAAAAGAGCTTGTACAGATGTATACATAATA [XGTACX_site3882] | 6.86
TATATGAAGCTATAGACACACATATAAAAATAGAAT [CACACA_site1313] | 6.78
AATTTATATGTTTTGTGTACACAATTTATTAAATTA [XGTACX_site6448] | 7.22
TTTATAATTCTTACAACACACAATGTACATTTATAT [CACACA_site1261] | 6.78
TAATATTATTATTTTACACACTTTTTTCCTTTTATC [CACACA_site2457] | 6.61
AAAGAATTTAAATATTGTACGCAATATATAAAAAAA [XGTACX_site7616] | 6.4
TTTGATAAAATTGATATCCTATAATTATATAAATAA [GTGCAC_negctrl_site317] | 6.01
AAAAAACAGACATACACACACACACCCATATATATA [CACACA_site3392] | 6.87
GATAAAATAAAAGTGGGTACTTAAATATATATATAA [XGTACX_site8457] | 6.43
ATAATATTATACTTTGCACACATCTGAAATGACATA [CACACA_site3952] | 10.4
AAAAGTACAATATATATGTATGTGTATAGAATGGTT [TGCATGCA_negctrl_site76] | 7.28
TACAATTTGATATATACACACAAATAAATTATGCTT [CACACA_site6534] | 6.67
